Data: PubChem BioAssay AID485367 (National Center for Advancing Translational Sciences (NCATS), 2010)
About 560 (0.17%) of roughly 330,000 compounds were called active. Inconclusive means that the source gave no clear call. Such entries were picked first, then a sample of the others. Calls come from the whole dose curve; as a rule, active = well fitted inhibition curve with a large enough effect; inconclusive = small, poorly fitted or top-dose-only effect, or effect the other way; inactive = flat fitted curve, though single readings scatter. Potencies of inconclusive entries are left out as doubtful fits.

Target: ATP-dependent 6-phosphofructokinase (Trypanosoma brucei brucei) (UniProt O15648)
Chain of UniProt O15648 (O15648 whole entry, looked up): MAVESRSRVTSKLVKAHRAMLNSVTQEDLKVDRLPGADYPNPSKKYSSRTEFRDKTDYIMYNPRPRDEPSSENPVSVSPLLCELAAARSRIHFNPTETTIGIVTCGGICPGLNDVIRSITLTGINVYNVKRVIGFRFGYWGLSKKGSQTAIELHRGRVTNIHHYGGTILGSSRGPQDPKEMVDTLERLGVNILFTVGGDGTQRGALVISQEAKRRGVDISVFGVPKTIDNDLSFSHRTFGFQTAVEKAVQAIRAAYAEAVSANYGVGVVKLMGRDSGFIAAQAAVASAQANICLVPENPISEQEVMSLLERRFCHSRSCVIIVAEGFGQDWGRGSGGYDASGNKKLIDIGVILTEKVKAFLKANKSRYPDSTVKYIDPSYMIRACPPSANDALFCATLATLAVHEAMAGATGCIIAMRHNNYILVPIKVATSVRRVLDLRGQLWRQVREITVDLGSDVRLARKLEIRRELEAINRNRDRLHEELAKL
Experiment: qHTS Assay to Find Inhibitors of T. brucei phosphofructokinase; note: nearly all actives have a fitted effect of over 60% in size;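 for activity, negative = inhibition: 0% = uninhibited 1x PFK enzyme wells and -100% = no-enzyme wells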
Conditions: T. brucei PFK, ADP-Glo luminescence; activity, negative = inhibition: at 57.5 µM (top of the series)
Outline: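 Luminescent ADP detection (ADP-Glo, two-step: ATP depletion then ADP-to-ATP conversion for luciferase) reported PFK activity after 45 min room-temperature reaction of 1.25 nM enzyme with 0.5 mM F6P and 0.1 mM ATP at pH 8.0.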
Potency is the fitted concentration of half-maximal effect; tags give direction and shape of the fitted curve.

SMILES	activity, negative = inhibition	Potency
Cc1ccn2c(c1)nc(=S)n2C(=O)c1ccccc1	inactive: -0.595%	
COc1ccc(S(=O)(=O)NCC(c2ccco2)N2CCc3ccccc32)cc1 (stereo unspecified)		inconclusive [falling, single point]
N/C(Cc1ccc(Cl)c(Cl)c1)=N\OC(=O)c1ccc(Br)o1		inconclusive [falling, single point]
O=C(COc1ccc(Cl)cc1)Nc1ccc(C(=O)NCc2cccnc2)cc1		inconclusive [falling, single point]
Cc1nnc(SCc2ccc(Cl)c(Cl)c2)s1		active: 23.9 µM
COc1ccccc1CNCc1ccc(C)cc1		inconclusive [falling, single point]
COc1cccc(NC(=O)CSC2=C(C#N)C(c3ccco3)C3=C(CCCC3=O)N2)c1 (stereo unspecified)	inactive: 3.68%	
O=C(CSc1ccc2nnc(-c3ccccc3)n2n1)NCc1ccco1		inconclusive [falling, single point]
Cc1ccc(/C=C/C(=O)Nc2ccc(S(N)(=O)=O)cc2)o1	inactive: -21.4%	
Cc1cc(C)c(Cn2c3ccccc3c3cnn(CC(=O)NCc4ccccn4)c(=O)c32)c(C)c1	inactive: -0.898%	
CCOC(=O)c1c(-c2ccco2)csc1NC(=O)COC(=O)c1cnc(C)cn1		inconclusive [falling, single point]
O=C(CNC(=O)c1ccccc1F)N/N=C/c1cccs1	inactive: -5.1%	
CN1C(=S)SC(N(O)C(=O)Nc2ccc(Cl)c(Cl)c2)C1(C)C (stereo unspecified)		inconclusive [falling, partial curve]
COc1cc(OC)c(OC)cc1/C=N/NC(=O)CSc1ccccc1F	inactive: -2.34%	
O=c1c(C(c2ccc(O)cc2)c2c(O)nc3n(c2=O)CCS3)c(O)nc2n1CCS2		inconclusive [activator, partial curve]
O=C(O)c1ccc(-n2cccc2/C=C2/NC(=O)N(c3ccccc3)C2=O)cc1		inconclusive [falling, partial curve]
COc1cccc(CC2(CO)CCCN(C/C=C/c3ccccc3OC)C2)c1 (stereo unspecified)	inactive: 1.16%	
O=C(O)COc1ccc(/C=N/NC(=O)Cc2ccc(Cl)cc2)cc1		inconclusive [falling, partial curve]
O=C(CN1C(=O)c2ccccc2S1(=O)=O)NC(Nc1ccccc1F)C(Cl)(Cl)Cl (stereo unspecified)	inactive: 2.21%	
O=C1C2C3C=CC(C3)C2C(=O)N1c1ncn[nH]1 (stereo unspecified)		inconclusive [falling, single point]
CCC1=NN2C(=N)/C(=C/c3cc(C)n(Cc4ccccc4)c3C)C(=O)N=C2S1	inactive: -0.12%	
